Results on 94 sequences are retold here after the supplement of paper PMC4166925.

± gives the standard deviation of the averaged measurements. Whole data set: some 33,000 sequences, median “E-score (dimensionless, -0.5 to 0.5)” near -0.049, cut for the highest 2% near 0.37. The list shows a part of the results.

This experiment deals with T1, PmTbr T-box DNA-binding domain (GST fusion).
T1 sequence: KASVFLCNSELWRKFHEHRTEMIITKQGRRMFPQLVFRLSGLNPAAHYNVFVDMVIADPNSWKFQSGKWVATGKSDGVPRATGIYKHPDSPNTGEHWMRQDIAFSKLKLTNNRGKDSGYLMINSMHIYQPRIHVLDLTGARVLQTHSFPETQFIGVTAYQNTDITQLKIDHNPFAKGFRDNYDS
Briefly: PBM E-score of 8-mer (E-score (dimensionless, -0.5 to 0.5)); Tbr is Tbrain of the sea star Patiria miniata (Pm) or the sea urchin Strongylocentrotus purpuratus (Sp); higher = stronger binding preference; most listed sequences are background and not binding sites. To be noted: the construct has about 5 more residues each side. The essentials: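 Using the Universal PBM Analysis Suite, every ungapped 8-mer received an enrichment E-score averaged over duplicate arrays. Probe intensities came from double-stranded Universal Agilent oligonucleotide arrays incubated with 200 nM GST-fused Tbr T-box DNA-binding domain in PBS (pH 7.5). That protein was expressed in BL21 E. coli at 20 °C and purified by glutathione affinity chromatography.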
As to CGAAGGGA, the “PBM E-score of 8-mer” value was 0.00651 ± 0.088.

GGCAACGA: the “PBM E-score of 8-mer” value turned out to be 0.0835 ± 0.033.

In the case of GAATCGGA, the “PBM E-score of 8-mer” value came out at 0.0845 ± 0.029.

For the sequence CTAGTCCA, the “PBM E-score of 8-mer” value was -0.198 ± 0.054.

CCCGACCG: the “PBM E-score of 8-mer” value is 0.0153 ± 0.029.

As to CTTTTAAA, the “PBM E-score of 8-mer” value is -0.236 ± 0.058.

On to CCGCAGCA, for which the “PBM E-score of 8-mer” value is -0.0679 ± 0.057.

As to ATTACCTG, the “PBM E-score of 8-mer” value is -0.154 ± 0.037.

Turning to AAGGCCGT, the “PBM E-score of 8-mer” value was -0.225 ± 0.053.

With ACCGCATG, the “PBM E-score of 8-mer” value is -0.233 ± 0.0099.

Regarding AGGCGCCG, the “PBM E-score of 8-mer” value amounted to 0.246 ± 0.016.

On to AGTGTTAC, for which the “PBM E-score of 8-mer” value was determined as 0.3946 ± 0.0021.

For the sequence ACGCTTGA, the “PBM E-score of 8-mer” value was found to be 0.0807 ± 0.032.

With AAATGGCA, the “PBM E-score of 8-mer” value came to 0.155 ± 0.048.

For the sequence GTAGTATA, the “PBM E-score of 8-mer” value was -0.113 ± 0.025.

As for AAGGCTTA, the “PBM E-score of 8-mer” value was -0.105 ± 0.0071.

CATGCTCG: the “PBM E-score of 8-mer” value was -0.065 ± 0.056.

ATGGGACG: the “PBM E-score of 8-mer” value was determined as 0.000355 ± 0.031.

For the sequence CAAAGGGC, the “PBM E-score of 8-mer” value was -0.227 ± 0.042.

With GAGGGACA, the “PBM E-score of 8-mer” value was -0.0259 ± 0.075.

As for ATGTTAAT, the “PBM E-score of 8-mer” value is 0.0448 ± 0.049.

Turning to CCAGCCGC, the “PBM E-score of 8-mer” value is -0.111 ± 0.021.

As to CCATTGAC, the “PBM E-score of 8-mer” value is -0.0902 ± 0.052.

On to AGATTAAA, for which the “PBM E-score of 8-mer” value was -0.0864 ± 0.019.

ATTCTAAA: the “PBM E-score of 8-mer” value was -0.224 ± 0.038.

For the sequence TCCGTTCA, the “PBM E-score of 8-mer” value was found to be 0.0167 ± 0.018.

In the case of AGAGTACG, the “PBM E-score of 8-mer” value is -0.0162 ± 0.0013.

Consider AACGTAAT, for which the “PBM E-score of 8-mer” value is -0.191 ± 0.12.

Consider AGGCTCGC, for which the “PBM E-score of 8-mer” value came to 0.158 ± 0.027.

With CGAAGGAA, the “PBM E-score of 8-mer” value is -0.0473 ± 0.07.

As for ATAAGGGA, the “PBM E-score of 8-mer” value is -0.228 ± 0.039.

Consider ATCGGAGC, for which the “PBM E-score of 8-mer” value is -0.183 ± 0.044.

CCCGATGC: the “PBM E-score of 8-mer” value is -0.2 ± 0.053.

Regarding GCCCTGGA, the “PBM E-score of 8-mer” value was -0.253 ± 0.037.

Turning to ACACAAAC, the “PBM E-score of 8-mer” value was 0.0688 ± 0.063.

ACACCAGT: the “PBM E-score of 8-mer” value came to 0.312 ± 0.049.

For AGAACCCA, the “PBM E-score of 8-mer” value is -0.283 ± 0.0036.

For the sequence GGCTATGA, the “PBM E-score of 8-mer” value was -0.0888 ± 0.045.

Consider TATTTGGA, for which the “PBM E-score of 8-mer” value was -0.104 ± 0.042.

With CATAGGAA, the “PBM E-score of 8-mer” value is -0.323 ± 0.034.

For the sequence GAGGACCA, the “PBM E-score of 8-mer” value was -0.295 ± 0.044.

For the sequence CCACGAGA, the “PBM E-score of 8-mer” value is -0.212 ± 0.049.

With AGTCCTCC, the “PBM E-score of 8-mer” value was -0.295 ± 0.0079.

Regarding CCCAGACA, the “PBM E-score of 8-mer” value was 0.0586 ± 0.013.

In the case of GCACTGAC, the “PBM E-score of 8-mer” value came out at 0.0486 ± 0.0086.

Turning to CGCGCAAC, the “PBM E-score of 8-mer” value was determined as 0.14 ± 0.051.

ATGGACCA: the “PBM E-score of 8-mer” value is -0.263 ± 0.049.

As for GTGTGTTA, the “PBM E-score of 8-mer” value turned out to be 0.274 ± 0.012.

As to ATCCGTGC, the “PBM E-score of 8-mer” value is -0.0614 ± 0.051.

On to AATCTAAT, for which the “PBM E-score of 8-mer” value was -0.111 ± 0.023.

For CGGCGGAA, the “PBM E-score of 8-mer” value is -0.06 ± 0.0026.

On to CTAGAGTA, for which the “PBM E-score of 8-mer” value was -0.244 ± 0.022.

For AATTCGTC, the “PBM E-score of 8-mer” value is 0.119 ± 0.0033.

For ATCAATAG, the “PBM E-score of 8-mer” value was -0.212 ± 0.012.

For the sequence CTCCCTCA, the “PBM E-score of 8-mer” value is -0.0331 ± 0.14.

Turning to AACCCTTC, the “PBM E-score of 8-mer” value is -0.377 ± 0.028.

For CCACGTTA, the “PBM E-score of 8-mer” value worked out at 0.131 ± 0.0074.

ATAGGACA: the “PBM E-score of 8-mer” value was -0.27 ± 0.049.

As for AAATGGGG, the “PBM E-score of 8-mer” value was -0.0909 ± 0.011.

As to ACTATCCA, the “PBM E-score of 8-mer” value is -0.174 ± 0.0085.

CAACTGAG: the “PBM E-score of 8-mer” value came to 0.0533 ± 0.042.

GACAACCA: the “PBM E-score of 8-mer” value was determined as 0.205 ± 0.035.

As for CGGTCAAC, the “PBM E-score of 8-mer” value was -0.0198 ± 0.048.

For ACTTCAGA, the “PBM E-score of 8-mer” value was -0.223 ± 0.039.

In the case of TAGCGCCA, the “PBM E-score of 8-mer” value is 0.34 ± 0.036.

AGACGCCG: the “PBM E-score of 8-mer” value amounted to 0.0359 ± 0.034.

With TAGGGATA, the “PBM E-score of 8-mer” value was -0.34 ± 0.0066.

Consider GAAGCCGA, for which the “PBM E-score of 8-mer” value is -0.025 ± 0.014.

GGCATCGA: the “PBM E-score of 8-mer” value is 0.0321 ± 0.04.

Consider CGGCCCAC, for which the “PBM E-score of 8-mer” value was -0.183 ± 0.077.

Consider CCCTCCGC, for which the “PBM E-score of 8-mer” value was 0.026 ± 0.075.

For the sequence AATACACA, the “PBM E-score of 8-mer” value was 0.077 ± 0.063.

Consider ATGTGGAA, for which the “PBM E-score of 8-mer” value was determined as 0.00298 ± 0.025.

In the case of GGAATAAC, the “PBM E-score of 8-mer” value amounted to 0.0842 ± 0.011.

On to CTGGTTAA, for which the “PBM E-score of 8-mer” value was -0.115 ± 0.025.

Consider CCTCTTAG, for which the “PBM E-score of 8-mer” value is -0.103 ± 0.0023.

CTCGTACA: the “PBM E-score of 8-mer” value is -0.195 ± 0.043.

Consider TAGTTTGA, for which the “PBM E-score of 8-mer” value is -0.0649 ± 0.08.

For the sequence TATTCACA, the “PBM E-score of 8-mer” value is 0.411 ± 0.029.

Turning to GCTGGGCC, the “PBM E-score of 8-mer” value is -0.225 ± 0.048.

As for CGGGAATC, the “PBM E-score of 8-mer” value is -0.0373 ± 0.064.

In the case of CACTCGCG, the “PBM E-score of 8-mer” value was determined as 0.255 ± 0.03.

Turning to GAGAAACC, the “PBM E-score of 8-mer” value turned out to be 0.0802 ± 0.033.

For the sequence ACCTATGG, the “PBM E-score of 8-mer” value amounted to 0.157 ± 0.047.

As for CTATCCCA, the “PBM E-score of 8-mer” value came to 0.0112 ± 0.092.

Regarding AGACGAGG, the “PBM E-score of 8-mer” value was -0.272 ± 0.011.

CCTCCTTA: the “PBM E-score of 8-mer” value stood at 0.121 ± 0.033.

On to AGTAATTA, for which the “PBM E-score of 8-mer” value was -0.0413 ± 0.014.

Regarding ATAACGCC, the “PBM E-score of 8-mer” value was determined as 0.237 ± 0.023.

On to ACTGTTCG, for which the “PBM E-score of 8-mer” value was found to be 0.0499 ± 0.045.

On to ATCGCGTA, for which the “PBM E-score of 8-mer” value was found to be 0.109 ± 0.0099.

For AACTCTTC, the “PBM E-score of 8-mer” value was -0.0978 ± 0.022.

Consider TAAACGTA, for which the “PBM E-score of 8-mer” value is -0.0963 ± 0.003.

ACGTGTGA: the “PBM E-score of 8-mer” value was found to be 0.4818 ± 0.0022.
